The whole screen tested about 410,000 compounds, of which about 6,400 (1.6%) were called active. Inconclusive results, whose numbers are uncertain, are shown with a selection of clear calls. The call rests on the fitted dose curve; in most records, active means well fitted inhibition curve with a large enough effect; inconclusive means small, poorly fitted or top-dose-only effect; inactive means no such curve, though single readings can be large or run the other way. No potency is given beside an inconclusive call; the fits are too rough.
target: Glucagon-like peptide 1 receptor (Homo sapiens) (UniProt P43220); experiment: qHTS of GLP-1 Receptor Inverse Agonists (Inhibition Mode); conditions: HEK293 GLP-1R CRE-luciferase, luminescence, 24 h, GLP-1R form is constitutively active; series mostly up to 38.3 µM; further: nearly all actives have a fitted effect of over 55% in size
Procedure, shortened: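 Stable HEK293 clone (constitutively active GLP-1R + cAMP-response luciferase); 200 cells/uL plated, 12 h pre-culture, compound 24 hr, 37 deg C/5% CO2; detection reagent 12 min RT; luminescence.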
Potency means the concentration at half of the fitted maximal effect; tags describe the fitted curve by direction and shape.

Chain of UniProt P43220 (P43220 whole entry, looked up): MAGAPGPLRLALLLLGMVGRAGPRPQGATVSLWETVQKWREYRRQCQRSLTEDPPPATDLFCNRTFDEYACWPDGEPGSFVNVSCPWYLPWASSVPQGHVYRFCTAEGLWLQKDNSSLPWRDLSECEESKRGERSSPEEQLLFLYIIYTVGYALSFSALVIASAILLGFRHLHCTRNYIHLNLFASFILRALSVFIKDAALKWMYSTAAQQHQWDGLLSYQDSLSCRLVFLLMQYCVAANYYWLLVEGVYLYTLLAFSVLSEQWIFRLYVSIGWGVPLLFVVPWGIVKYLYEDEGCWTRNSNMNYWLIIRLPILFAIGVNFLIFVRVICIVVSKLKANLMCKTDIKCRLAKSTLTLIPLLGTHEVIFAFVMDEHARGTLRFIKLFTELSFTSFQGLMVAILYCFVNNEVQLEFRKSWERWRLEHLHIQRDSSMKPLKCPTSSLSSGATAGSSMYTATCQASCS

| Compound | Potency |
| --- | --- |
| Cc1nn(C(C)C(=O)Nc2ccccc2Cl)c(=O)c2nn(-c3ccccc3)c(C)c12 (configuration not stated) | inconclusive [inhibitor, partial curve, poor fit] |
| Cc1c(Cl)cc(C(C)C)c(O)c1CN1CCOCC1 | inconclusive [inhibitor, single point] |
| Cc1ccc(NS(=O)(=O)c2ccc(C(=O)N3CCN(c4ncccn4)CC3)cc2)cc1 | inactive |
| O=C(NC(NC(=S)Nc1ccc(Cl)c(Cl)c1)C(Cl)(Cl)Cl)c1ccco1 (configuration not stated) | active: 3.55 µM |
| Cc1ccc(-c2cccc(C3CC=CC4C3C(=O)N(Cc3ccccc3)C4c3cc(C)ccc3F)c2)cc1 (configuration not stated) | active: 4.47 µM |
| CCOc1ccccc1N(CC(=O)Nc1cccc(OC)c1)S(=O)(=O)c1ccccc1 | inconclusive [inhibitor, single point] |
| Oc1ccc2ccccc2c1CN1CCN(C/C=C/c2ccccc2)CC1 | inconclusive [inhibitor, partial curve, poor fit] |
| C/C(CC(=O)Nc1cc(Cl)ccc1Cl)=N\NC(=O)c1ccccc1Br | inconclusive [inhibitor, single point] |
| Cc1ccc(C(=O)COc2ccccc2-c2ccccc2)cc1 | inconclusive [inhibitor, single point] |
| C[n+]1ccc(/C=C/c2ccc(Br)cc2)cc1 | inactive |
| Cc1ccc(C(C)C)c(OCC(=O)NCC(c2cccs2)N2CCOCC2)c1 (configuration not stated) | inconclusive [inhibitor, single point] |
| O=S(=O)(/N=C(/NC(=S)Nc1ccccc1)c1ccccc1)c1ccc(Cl)cc1 | inconclusive [inhibitor, partial curve, poor fit] |
| COc1ccccc1N1CCN(Cc2ccc(OC)c3ccccc23)CC1 | inactive |
| COc1ccc(N2CCc3c(C)nc4c(OC)cc(OC)cc4c32)cc1 | inconclusive [inhibitor, single point] |
| COc1ccc(-c2c(-c3ccsc3)oc3ccc(N4CCOCC4)cc23)cn1 | inconclusive [inhibitor, partial curve, poor fit] |
| Clc1ccc(CN2CCN(c3ncccn3)CC2)c(Cl)c1 | inconclusive [inhibitor, single point] |
| O=C(NNC(=S)NC(=O)c1ccc(F)cc1)c1cccnc1 | inactive |
| C/C(=N\NC(=O)c1ccccc1O)c1c(O)cc(C)oc1=O | inactive |
| Cc1ccc(S(=O)(=O)N(Cc2ccc(Cl)cc2)c2ccccc2C(=O)O)cc1 | inconclusive [inhibitor, single point] |
| COc1ccc(NC(=O)c2cc(-c3ccccn3)nc3ccccc23)c(OC)c1 | inconclusive [inhibitor, single point] |
| CC(C)OCCCNC(=S)NNC(=O)C(c1ccccc1)c1ccccc1 | inconclusive [inhibitor, full curve, poor fit] |

| Compound | Potency |
| --- | --- |
| O=C(Cn1ccc2cc(S(=O)(=O)N3CCCCCC3)ccc21)NCCc1ccc(Cl)cc1 | inconclusive [inhibitor, single point] |
| O=C(C(=O)N1CCCCCC1)c1c[nH]c2ccccc12 | inactive |
| O=C(OCc1ccccc1)N1CCC2CC1c1cc(N3CCN(C(=S)NCCc4ccccc4)CC3)ccc12 (configuration not stated) | inconclusive [inhibitor, single point] |
| CCC(C)NCCCOc1c(C)cc(C)cc1Br (configuration not stated) | inconclusive [inhibitor, partial curve] |
| COc1cccc(NC(=O)NNC(=O)C(C)Oc2ccc3ccccc3c2)c1 (configuration not stated) | inconclusive [inhibitor, partial curve, poor fit] |
| CN(C(=O)CSc1nc(-c2ccc(C(C)(C)C)cc2)c(C#N)c(=O)[nH]1)C1CCCCC1 | inconclusive [inhibitor, single point] |
| COC(=O)N/N=C/c1cn(CC(C)COc2ccccc2)c2ccccc12 (configuration not stated) | active: 10 µM |
| COc1ccc(-c2csc(NC(=O)C3COc4ccccc4O3)n2)cc1OC (configuration not stated) | inconclusive [inhibitor, single point] |
| Cc1cc(Cl)ccc1OCCCC(=O)NCc1ccccn1 | inactive |
| CCCNC(=O)CSc1nnc(-c2ccccc2Br)n1-c1cccc(C(F)(F)F)c1 | inconclusive [inhibitor, partial curve, poor fit] |
| O=C1NC[C@H](Cc2ccccc2)N(CC2CCN(CCc3ccc(-c4ccccc4)cc3)CC2)C1=O | inconclusive [inhibitor, single point] |
| COc1ccc(-c2ccc(C(=O)NCc3ccc(C(F)(F)F)cc3)c3occc23)c(C)c1 | inconclusive [inhibitor, partial curve, poor fit] |
| CCOC(=O)N1CCC(N2Cc3cccc(C(=O)N4CCN(c5cccc(C)c5C)CC4)c3C2=O)CC1 | inconclusive [inhibitor, partial curve] |
| CCN1C(=O)c2ccccc2S(=O)(=O)c2ccc(C(=O)NCc3ccccc3Cl)cc21 | inconclusive [inhibitor, single point] |
| Cc1cccc2cc(C#N)c(NCCNC(=O)NC3CCCCC3)nc12 | inactive |
| COc1ccc(C2=CC(=O)C[C@H](c3ccc(OC)cc3)C2)cc1 | inconclusive [inhibitor, partial curve, poor fit] |
| COc1ccc2c(-c3ccc(S(N)(=O)=O)cc3)c(-c3ccc(S(C)(=O)=O)cc3)sc2c1 | inconclusive [inhibitor, single point] |
| CCNC(=S)N1CCN(c2nc(-c3cccc(OC)c3)cs2)CC1 | inconclusive [inhibitor, single point] |
| CN(Cc1ccccc1)S(=O)(=O)c1ccc(Cl)c(C(=O)N2CCC2)c1 | inactive |
| O=C(CN1CCOCC1)Nc1nc2ccc([N+](=O)[O-])cc2s1 | inactive |
| COC(=O)[C@]12CCCCC=C1N(Cc1ccc(Cl)cc1Cl)C(=O)[C@H](CC(=O)NCc1cccc3ccccc13)C2 | inconclusive [inhibitor, partial curve, poor fit] |
